This is one part of the list. At the low end of the ranking the order means little.
Each sequence was assayed against T1, GST-Rok-C97-191 (UniProt O34857) (assay: protein binding microarray). Conditions: Rok is a gene silencer of Bacillus subtilis; high values mean tight binding; most listed sequences are background and not binding sites; double strand, one strand shown.
T1 sequence: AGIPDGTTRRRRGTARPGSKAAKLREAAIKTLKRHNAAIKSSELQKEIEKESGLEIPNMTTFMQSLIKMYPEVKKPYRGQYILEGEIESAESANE
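Further: rank score from −0.5 (least bound) to 0.5 (best bound).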

Row | Sequence | binding signal
1 | CACATGTC | -0.0475 E-score
2 | GAGTGTAC | -0.0119 E-score
3 | AACGCAAT | 0.22 E-score
4 | GTTGCAAC | 0.162 E-score
5 | CGCGCTCA | -0.186 E-score
6 | ACAGTCAG | -0.122 E-score
7 | ACCGGACC | 0.0114 E-score
8 | CGGCCGAC | -0.317 E-score
9 | CCTGCTCA | -0.142 E-score
10 | GTCGCCAC | -0.207 E-score
11 | GTTTTGCA | 0.0567 E-score
12 | GCTTACAA | -0.194 E-score
13 | TCGACAGA | -0.151 E-score
14 | ACCGGGAG | -0.154 E-score
15 | ATTAAGGG | -0.0333 E-score
16 | AGAAGGAT | 0.0236 E-score
17 | AGAGATTG | 0.0802 E-score
18 | CGGTGTGA | 0.0408 E-score
19 | ATATTCCC | 0.19 E-score
20 | ATTTATTC | 0.0993 E-score
21 | CAAATCTC | 0.0537 E-score
22 | CGACCGAC | -0.157 E-score
23 | ACACTAAT | 0.308 E-score
24 | CGGTTACG | 0.0791 E-score
25 | CATATGCC | -0.12 E-score

Row | Sequence | binding signal
26 | ATTGTCCC | -0.213 E-score
27 | AGAGGATG | 0.0363 E-score
28 | ATTAGTTA | 0.336 E-score
29 | GCAGCCAA | -0.0778 E-score
30 | CATGCGAG | -0.248 E-score
31 | GTACGATA | 0.217 E-score
32 | AATGCCTA | 0.000871 E-score
33 | CCAGCTTC | -0.205 E-score
34 | GTGTTGGA | -0.0732 E-score
35 | GATAATAA | 0.174 E-score
36 | AACCGACG | -0.147 E-score
37 | CAGGTTAG | -0.165 E-score
38 | CACAATAA | 0.185 E-score
39 | CACTGTCG | -0.109 E-score
40 | GGAAAAAA | -0.0552 E-score
41 | CATAGAGG | -0.0283 E-score
42 | AACAAAAA | 0.101 E-score
43 | ATGAGTAG | 0.281 E-score
44 | AGCATCTG | -0.0677 E-score
45 | CCACCCCG | -0.253 E-score
46 | CGCTGCTA | 0.0306 E-score
47 | ACGACCGT | 0.00992 E-score
48 | AACCTTAT | -0.044 E-score
49 | ATCACCTA | 0.0381 E-score
50 | AAAGAGGC | -0.108 E-score

Row | Sequence | binding signal
51 | AACGGGAA | -0.0937 E-score
52 | GATACCGA | 0.103 E-score
53 | ACCGGCGC | -0.232 E-score
54 | GCTCGAGA | -0.0729 E-score
55 | AACACCGG | -0.0393 E-score
56 | CATAACCC | -0.224 E-score
57 | CTACCTGC | 0.00887 E-score
58 | CTTAACCC | 0.0474 E-score
59 | CCAGGGTA | 0.0189 E-score
60 | AAGATTCA | 0.0971 E-score
61 | ATAGATGC | 0.22 E-score
62 | ATCGTAGC | -0.0487 E-score
63 | CCTAGTAC | 0.0475 E-score
64 | AAAGAGTT | 0.123 E-score
65 | ACAGCCCA | -0.071 E-score
66 | ATCAGTCA | -0.174 E-score
67 | CGCTGCAA | -0.0879 E-score
68 | AATATTGC | 0.15 E-score
69 | CATTGCAC | 0.0344 E-score
70 | GTGCATAA | 0.174 E-score
71 | AATTGAAG | 0.229 E-score
72 | GCCCCGAC | -0.335 E-score
73 | CCTAACGC | -0.153 E-score
74 | AAACCAAG | 0.00645 E-score
75 | CAGACCCC | -0.358 E-score

Row | Sequence | binding signal
76 | GGGGTGCA | -0.159 E-score
77 | CAAAAAGA | -0.0455 E-score
78 | GAAAATGA | -0.0787 E-score
79 | CGGCCGCA | -0.286 E-score
80 | TAAAGGAA | -0.166 E-score
81 | CTACGGGC | -0.093 E-score
82 | CTTTGAAA | -0.0417 E-score
83 | AACCATTG | -0.0933 E-score
84 | AGGTAGCG | 0.125 E-score
85 | CAGTGCAG | -0.233 E-score
86 | GTAACGTA | 0.0867 E-score
87 | CATCTTGA | -0.126 E-score
88 | ACCGCTCC | -0.0739 E-score
89 | CGGAACTC | -0.0422 E-score
90 | CTAGGTTA | -0.0294 E-score
91 | GGCAGCAC | -0.311 E-score
92 | CCGATACA | 0.175 E-score
93 | GGAATAAA | 0.138 E-score
94 | AATTCAAT | 0.22 E-score
95 | CAAGATGA | -0.0963 E-score
96 | ATCCGATA | 0.203 E-score
97 | AATTGAGA | -0.0343 E-score
98 | ACACCAAA | 0.162 E-score
99 | CCTACGGC | -0.0892 E-score
100 | ATGAATGA | 0.158 E-score

Row | Sequence | binding signal
101 | CAACAGGA | -0.0379 E-score
102 | GCAGCGGA | -0.0833 E-score
103 | ACCTGCGA | 0.0411 E-score
104 | GACGGGAA | -0.161 E-score
105 | CCTTACCA | -0.0792 E-score
106 | CCCTGTTA | -0.000838 E-score
107 | GAGCGTCA | -0.205 E-score
108 | TATTAGGA | 0.111 E-score
109 | AACCCGCT | -0.245 E-score
110 | AACTTCTG | 0.193 E-score
111 | ATCACGGC | 0.0235 E-score
112 | CTCGGCGC | -0.202 E-score
113 | AGGCAGAC | -0.358 E-score
114 | AGCAAATG | 0.195 E-score
115 | CGTGGTGC | -0.37 E-score
116 | CATCGCCC | -0.274 E-score
117 | CGACGCAG | -0.121 E-score
118 | GACCCGCC | -0.243 E-score
119 | CGCACGCC | -0.18 E-score
120 | ATTCCGTG | 0.17 E-score
121 | ATTAAGTA | 0.291 E-score
122 | ATATTGAC | 0.118 E-score
123 | AAACGCTA | 0.181 E-score
124 | ACCAGAGG | -0.185 E-score
125 | GCCCAATA | 0.0681 E-score

Row | Sequence | binding signal
126 | AATACCCG | 0.177 E-score
127 | CTGAAATA | -0.0818 E-score
128 | GTATTTTA | 0.376 E-score
129 | CGTGAATA | 0.017 E-score
130 | ACTTACAT | 0.245 E-score
131 | ACCTGTCA | -0.103 E-score
132 | AAGGTCTC | -0.133 E-score
133 | TCGCTCAA | 0.0269 E-score
134 | AGTGGTGG | -0.12 E-score
135 | AGGTCTAA | 0.0411 E-score
136 | TCCTAACA | -0.107 E-score
137 | TCGAGAGA | 0.0288 E-score
138 | CTGGTACC | 0.0702 E-score
139 | GGACTCAA | -0.00733 E-score
140 | CATTGACG | 0.0907 E-score
141 | ATCCCTCC | -0.221 E-score
142 | AATTCGAC | -0.0523 E-score
143 | GCTTATCA | -0.154 E-score
144 | GAGAACCC | -0.104 E-score
145 | CAGGTGAA | -0.11 E-score
146 | AGACCTCG | -0.0859 E-score
147 | CAACCGGG | -0.294 E-score
148 | CGGTAGCA | 0.166 E-score
149 | ATGGACTG | -0.124 E-score
150 | GCTGATCC | -0.0276 E-score

Row | Sequence | binding signal
151 | AGAGACAT | 0.0204 E-score
152 | CCGACAAC | -0.076 E-score
153 | CAACCCTG | -0.104 E-score
154 | CAAAAACG | -0.131 E-score
155 | ACGAGATG | -0.185 E-score
156 | ATGTATGG | 0.252 E-score
157 | GGTAAACA | -0.0472 E-score
158 | CGTGCTGA | -0.198 E-score
159 | AGTCTTGA | -0.051 E-score
160 | CAAGTCGG | 0.0501 E-score
161 | AGGGCCTG | -0.369 E-score
162 | TCCCATAA | -0.0486 E-score
163 | ACCTGCCC | -0.288 E-score
164 | CTCCATCA | -0.0795 E-score
165 | CGCTACAG | 0.0451 E-score
166 | GTAGGTGA | 0.139 E-score
167 | CCGACAGA | -0.0286 E-score
168 | GACATATA | 0.307 E-score
169 | CCTTAAGG | -0.136 E-score
170 | ACGGCCAT | -0.0791 E-score
171 | ACATCGCT | -0.158 E-score
172 | ATTAGGAC | 0.107 E-score
173 | AGGAATAA | 0.115 E-score
174 | ACACTCCT | -0.18 E-score
175 | CATCGCTA | 0.00374 E-score

Row | Sequence | binding signal
176 | GTAGTGCA | 0.015 E-score
177 | GCTTTTCC | 0.00274 E-score
178 | CGTATAGA | 0.1 E-score
179 | AAGTAAAC | 0.116 E-score
180 | GTGCGTGA | 0.104 E-score
181 | CTTTGACA | -0.0598 E-score
182 | ATTATCAC | 0.173 E-score
183 | GACAAGAA | -0.168 E-score
184 | CGAAAGTA | 0.203 E-score
185 | CATCTCGA | -0.0346 E-score
186 | AGTTCTGG | -0.02 E-score
187 | AGGCCACG | -0.247 E-score
188 | AAAAGAGG | -0.0599 E-score
189 | GACTGCAC | -0.239 E-score
190 | CAAAAGCC | -0.0199 E-score
191 | GCTCACTA | 0.0154 E-score
192 | AAGCGGCC | -0.2 E-score
193 | AAACCGTA | -0.119 E-score
194 | CATTCCCG | -0.0412 E-score
195 | CGCAAACA | -0.0194 E-score
196 | ACAATGAT | 0.143 E-score
197 | GTTGACGA | -0.0987 E-score
198 | ACATATCT | 0.162 E-score
199 | AGAAAGCG | 0.104 E-score
200 | CCAATAAG | 0.0325 E-score

Row | Sequence | binding signal
201 | CGTCGGAC | -0.0828 E-score
202 | ATCTTAGG | -0.016 E-score
203 | CGCAGAGC | -0.17 E-score
204 | TCATTAGA | 0.116 E-score
205 | ACCTTCCT | -0.142 E-score
206 | ACGTAGAC | 0.0154 E-score
207 | GAAGCACC | -0.322 E-score
208 | ATCCTCGA | -0.156 E-score
209 | AGTTCACG | 0.0934 E-score
210 | AGGGTTAC | -0.183 E-score
211 | CACACTAA | 0.175 E-score
212 | CCAAGCCA | -0.148 E-score
213 | AACTGATT | 0.0123 E-score
214 | CAGGCCAC | -0.131 E-score
215 | AATACCAG | 0.0214 E-score
216 | CCACGCCA | -0.234 E-score
217 | GAGGCGTA | -0.0228 E-score
218 | GGAGGTGA | -0.229 E-score
219 | CAACGCTG | 0.0441 E-score

Reference: article PMC6212790
